Data: ChEMBL document CHEMBL4888484, “Replenishing the malaria drug discovery pipeline: Screening and hit evaluation of the MMV Hit Generation Library 1 (HGL1) against asexual blood stage Plasmodium falciparum ,using a nano luciferase reporter read-out” (2022)
In all, about 150,000 compounds went through this assay and about 540 (0.36%) showed an effect of 50% or more. Some of the results follow.

What follows are compounds tested on Plasmodium falciparum (assay: Primary screen in NF54 nanoGlo assay, in single point, at 2uM, 72h; a lower Z score goes with more inhibition). Details: timepoint 72 hour.
Assay type: functional, Erythrocyte

Row | SMILES | % Inhibition [%] | Z score
1 | Cc1cccc(N2CCN(c3ccc(NS(=O)(=O)c4cccc(F)c4)cc3C(=O)O)C[C@@H]2C)c1 | -6 | 0.56
2 | O=C([C@@H]1Cc2ccccc2O1)N1CCC(n2ncc3c2CNC3)CC1 | -9 | 1.27
3 | CNC(=O)CC(=O)NC[C@H]1COC2(CCCCCC2)O1 | 30 | -3.34
4 | Cc1ccc(O[C@@H](C)CNC(=O)NCc2cnn(C)c2)cc1 | -5 | 0.9
5 | CC(=Cc1csc(-c2ccccn2)n1)c1nc(C)c(C#N)c(=O)[nH]1 | 13 | -1.76
6 | CN(C(=O)Cn1nnc2ccccc2c1=O)c1ccccc1 | -7 | 0.88
7 | COc1ccc(C(=O)COc2ccccc2N2C(=O)c3cc(Cl)c(Cl)cc3C2=O)cc1 | -8 | 1.01
8 | CC1(C)CN(C(=O)c2cccc3ccnn23)CCO1 | -5 | 1.01
9 | O=S(=O)(NC[C@@H](c1ccsc1)N1CCCCCC1)c1ccccc1 | 7 | -0.83
10 | O=C(N[C@@H](N1CCOCC1)C(Cl)(Cl)Cl)c1ccccc1 | 8 | -1.28
11 | Cc1ccc(CN2CCC(CC3CC3)(NC(=O)c3ccccc3)CC2)o1 | -2 | 0.35
12 | CC(=O)N(c1ccccc1)[C@H]1C[C@@H](C)N(C(=O)COc2ccccc2C)c2ccccc21 | -14 | 1.78
13 | O=C(Oc1ccc2ccccc2c1Br)N1CCCCCC1 | -12 | 1.64
14 | CCCc1cc(NCC2(N3CCOCC3)CC(OCC)C2)n2ncnc2n1 (stereo unspecified) | -1 | 0.19
15 | CCOc1ccc(S(=O)(=O)N[C@H]2CCN(c3ccc(F)cc3)C2=O)cc1 | 3 | -0.45
16 | Cc1nc(C(=O)N(Cc2ccccc2C(F)(F)F)C2CCCC2)c(=O)[nH]c1C | -10 | 1.29
17 | CN1CC(=O)N2C(CCc3ccccc3)c3[nH]c4ccccc4c3C[C@H]2C1=O (stereo partly specified) | -5 | 0.58
18 | Cc1csc([C@H](C)NS(=O)(=O)N2CCOCC2)n1 | 10 | -1.3
19 | CN(C)C[C@H]1CN(Cc2csc(-c3ncccn3)n2)CCO1 | -7 | 1
20 | CCNc1nc(C)c(C(=O)N(C)Cc2nnc(C3CC3)n2C)s1 | -4 | 0.35
21 | Cc1nnc(C2CCN(Cc3ccc(Cl)cc3Cl)CC2)s1 | -7 | 1.12

Row | SMILES | % Inhibition [%] | Z score
22 | CCCCN(CC#Cc1ccccc1)C(=O)CCc1nc(C)n[nH]1 | 12 | -1.66
23 | CCN(CC)C(=O)NC[C@H]1CCCN1CC | 1 | -0.15
24 | O=C(c1cccc2sc(C(F)(F)F)nc12)N1CC[C@H](CCO)C1 | -8 | 1.02
25 | COc1ccc(S(=O)(=O)Nc2ccc(N(C)C)c(CN(C[C@H]3CCCO3)C(=O)C(C)C)c2)cc1 | -3 | 0.49
26 | Cc1cc(NC(=O)CN2CCO[C@H](C3CCC3)C2)on1 | -12 | 1.4
27 | O=C(NCC1CCOCC1)c1cccc2ccnn12 | -5 | 0.87
28 | COc1ccc(-c2cnc(C(=O)N3CCc4ccccc4C3)o2)cc1 | -25 | 4.05
29 | C[C@@H](NC(=O)NC1CCN(C)CC1)C(O)(c1ccccc1)c1ccccc1 | 3 | -0.47
30 | CO[C@H]1CS(=O)(=O)C[C@@H]1NC(=O)c1cc(C(C)C)no1 | -11 | 1.65
31 | CCc1cc(NCCCn2nc(C)c(C)c2C)ncn1 | -16 | 1.61
32 | COc1ccccc1NC(=O)c1sc2sc(C(=O)Nc3ccccc3OC)c(N)c2c1N | -4 | 0.5
33 | CNS(=O)(=O)Nc1ccc(NC(=O)c2nccnc2N)cc1 | 1 | -0.19
34 | O=C1[C@H]2CCCC[C@H]2C(=O)N1c1ncn(Cc2cccc(F)c2)n1 | -8 | 1.14
35 | CC(C)[C@H](C)n1nccc1NC(=O)c1cc(=O)[nH]c(=O)[nH]1 | 1 | -0.17
36 | O[C@@H](CNc1nc(-c2ccncc2)nc2c1CCC2)COCC1CC1 | -5 | 0.89
37 | O=C(NCCc1cccnc1)c1cnc(COc2ccccc2)nc1O | 0 | 0.01
38 | Cc1ccc(CNC(=O)CN2CCN(C(=O)Nc3ccc(Cl)cc3)CC2=O)o1 | 7 | -1.32
39 | COc1ccc2c(c1)CCc1cnc(-n3ncc(C(=O)NC[C@@H]4CCCN5CCCC[C@H]45)c3C)nc1-2 | 19 | -2.47
40 | O=C(NCc1cccc(C(F)(F)F)c1)c1ccc(CN2CCN(c3ccccc3)CC2)o1 | 6 | -0.68
41 | COc1ccc(-c2nnc3c4ccccc4nc(N4CCCN(C(=O)CC(C)(C)C)CC4)n23)cc1 | -2 | 0.27
42 | c1cc2cc(CN3CCc4[nH]ncc4C3)ccc2s1 | -5 | 0.69

Row | SMILES | % Inhibition [%] | Z score
43 | CC(OC(=O)C(C)N(C)CC(F)(F)F)C1CCOC1 (stereo unspecified) | -1 | 0.08
44 | Cc1ccc(-n2ncc(C(=O)NCc3ccc(F)cc3)c2C2CCN(C(=O)OC(C)(C)C)CC2)c(C)c1 | 12 | -1.2
45 | Cc1cnc(CN(CCO)Cc2sccc2C)cn1 | -16 | 1.76
46 | Cn1nc(CNC(=O)c2ccsc2)c2c1CCCC2 | -7 | 1.36
47 | O=S(=O)(NCC1CC1)c1ccnc(N2CC3CC3(CO)C2)c1 (stereo unspecified) | -8 | 1.05
48 | O=C(Cn1ccnc1C(=O)c1cccnc1)Nc1ccc(Oc2ccccc2)cc1 | -12 | 1.9
49 | CC1=C(C)CN(C(=O)[C@H]2CCCC(=O)N2)CC1 | -14 | 1.9
50 | Cc1nccnc1N1CCC(C(=O)O)(n2ccc(C(C)(C)C)n2)CC1 | -14 | 1.82
51 | CN(C)C[C@@H]1[C@H]2CN(C(=O)NCc3cc(-c4ccc(Cl)cc4)no3)C[C@@H]12 | 7 | -1.24
52 | O=C(NC[C@H]1CCOC1)c1ccc(-c2ccc3c(c2)OC(F)(F)O3)cc1 | 12 | -1.89
53 | COC(=O)c1cc2n(n1)C[C@@](C)(C(=O)NC1CCCCC1)N(c1ccc(C)c(C)c1)C2=O | 7 | -0.85
54 | CCN1C(=O)c2c(C(=O)N3CCOCC3)ncn2C[C@@]1(C)C(=O)NCCCOC(C)C | -12 | 2.31
55 | Cc1cc(C)n(S(=O)(=O)c2cc(Cl)ccc2Cl)c(=O)c1C#N | -16 | 2.82
56 | CCOC(=O)c1[nH]c(CN(Cc2ccc(OC)cc2)S(C)(=O)=O)c(C)c1C | -8 | 0.76
57 | Cc1nn2c(=O)[nH]ncc2c1-c1ccc2c(c1)OCCO2 | -7 | 1.46
58 | Cc1cccc([C@@H]2CC(c3ccc4c(c3)OCO4)=NN2S(C)(=O)=O)c1 | 28 | -3.13
59 | Cn1cc(C[C@H]2CC(=O)N(Cc3ccc(F)c(Cl)c3)C2=O)cn1 | -1 | 0.17
60 | COc1c[nH]c(C(=O)N2CC(c3cccnc3)C2)cc1=O | -2 | 0.3
61 | O=C(Cn1cnc2ccccc21)N1CCC(Oc2ccccn2)CC1 | -4 | 0.78
62 | CCOC(=O)c1cn(CCNc2nn3cc(C4CCCC4)nc3s2)cn1 | -46 | 5.41
63 | CC(C)c1cc(N(C)CCCN2CCOCC2)n[nH]1 | -10 | 1.47

Row | SMILES | % Inhibition [%] | Z score
64 | O=C(c1cn2cc(Cl)ccc2n1)N1CCC(c2nccn2CC2CC2)CC1 | -25 | 2.45
65 | Cc1cc(CN(C)c2nccc(C(C)C)n2)ccn1 | -5 | 0.54
66 | Cc1noc(C)c1CCN1CCn2c(nn(CC(=O)N(C)C)c2=O)C1 | -4 | 0.44
67 | Clc1ccc(-c2noc(-c3cccnc3NC[C@H]3CCCO3)n2)cc1 | -6 | 0.93
68 | CCc1nnsc1C(=O)NC[C@H]1COc2ccccc2O1 | 12 | -2.34
69 | CCc1nc(C#N)cc(N(C)CCN(C)CCO)n1 | -4 | 0.84
70 | CCc1nc(Cn2ccnc2-c2cccc(-c3ccco3)c2)no1 | -6 | 1.13
71 | COc1ccc(COCC(=O)Nc2cc(C(F)(F)F)n(C)n2)cc1 | -4 | 0.48
72 | CCCc1cc(N2CCN(Cc3cccc(OC)c3F)CC2)nc(C)n1 | -3 | 0.49
73 | Cc1cc(NC(=O)CCNc2ncccn2)nn1C | -3 | 0.46
74 | CC(C)N1CCc2nc(NC(=O)c3ccc(S(=O)(=O)N4CCOCC4)cc3)sc2C1 | -7 | 1.11
75 | COc1cc(C)n(CCNC(=O)CCc2ccc(F)c(C)c2)c(=O)c1 | -10 | 1.94
76 | O=C(NCCn1ccnc1)Nc1cccc(-c2ccc3c(c2)CCO3)c1 | -3 | 0.41
77 | CN(CC1CC(O)C1)C(=O)NC1CC(OCc2ccccc2)C1(C)C (stereo unspecified) | 1 | -0.1
78 | Cc1cn(C2CCCCC2)nc1NC(=O)c1ccc(F)cc1O | 5 | -0.7
79 | CC[C@H](NC(=O)c1c(Cl)c(C)nn1C)c1ncnn1CC | -7 | 1.32
80 | CNC(=O)NC[C@H]1CCN(Cc2ccc(F)cc2F)C[C@H]1N(C)C | -16 | 2.15
81 | Fc1ccccc1-c1ccc(CN2CCN([C@H]3CCN(CC(F)(F)F)C3)CC2)s1 | 7 | -0.58
82 | CC1(C)CN(C(=O)Nc2ccc(N3CCOCC3)c(F)c2)C1(C)C | 1 | -0.08
83 | CC1(C)CN(Cc2nnc(C3CC3)o2)CC[C@]1(C)O | -8 | 1.36
